PMC4242493
Some of the results follow. The list includes weakly bound sequences.

Target: MaxL homodimer (UniProt P61244)
Experiment: universal protein-binding microarray (PBM)
Settings: PBS-based mixture, 10 nM His-tagged protein dimer, 2% milk, 200 ng/uL BSA, 50 ng/uL salmon testes DNA, 0.02% TX-100; detection with Alexa 488 anti-His …; high values mean tight binding; most listed sequences are background and not binding sites; double strand, one strand shown

Sequence of UniProt P61244 (P61244 whole entry): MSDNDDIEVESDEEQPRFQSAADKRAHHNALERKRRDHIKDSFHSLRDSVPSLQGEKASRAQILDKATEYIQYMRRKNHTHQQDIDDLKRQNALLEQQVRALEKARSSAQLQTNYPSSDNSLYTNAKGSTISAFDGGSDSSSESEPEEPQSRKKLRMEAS

AGGAAACA was tested. Which binding signal (normalized occupancy) did it give?
The binding signal (normalized occupancy) was 0.0721.

For CAGATGAG, which binding signal (normalized occupancy) is on record?
Its binding signal (normalized occupancy) is 0.0786.

For ACATCAGC, which binding signal (normalized occupancy) is on record?
Its binding signal (normalized occupancy) is 0.0817.

Which binding signal (normalized occupancy) does the source give for AAAAAATC here?
The binding signal (normalized occupancy) was 0.0743.

How did the binding signal (normalized occupancy) turn out when CGGAGAGC was run?
Its binding signal (normalized occupancy) is 0.072.

How did the binding signal (normalized occupancy) turn out when CGCCGCGC was run?
Its binding signal (normalized occupancy) is 0.0775.

For GAGGCAAC, which binding signal (normalized occupancy) is on record?
Its binding signal (normalized occupancy) is 0.0759.

Which binding signal (normalized occupancy) does the source give for CGATCGCG here?
The binding signal (normalized occupancy) was 0.0735.

Which binding signal (normalized occupancy) does the source give for GCGACGTA here?
Its binding signal (normalized occupancy) is 0.0777.

For ATAAAAGG, which binding signal (normalized occupancy) is on record?
Its binding signal (normalized occupancy) is 0.0778.

For ACTGGAGG, which binding signal (normalized occupancy) is on record?
The binding signal (normalized occupancy) was 0.0727.

Which binding signal (normalized occupancy) does the source give for AAAGGATC here?
The binding signal (normalized occupancy) was 0.0735.

GATGCACC was tested. Which binding signal (normalized occupancy) did it give?
Its binding signal (normalized occupancy) is 0.0775.

For CTTTGCGA, which binding signal (normalized occupancy) is on record?
The binding signal (normalized occupancy) was 0.0718.

Which binding signal (normalized occupancy) does the source give for GAGCTAAC here?
Its binding signal (normalized occupancy) is 0.0666.

AGATCCGG was tested. Which binding signal (normalized occupancy) did it give?
Its binding signal (normalized occupancy) is 0.0735.

How did the binding signal (normalized occupancy) turn out when CGCCTAAC was run?
The binding signal (normalized occupancy) was 0.0704.

With AGCTGCTA as the sequence, how does the binding signal (normalized occupancy) read?
The binding signal (normalized occupancy) was 0.0731.

With AAACAAGT as the sequence, how does the binding signal (normalized occupancy) read?
Its binding signal (normalized occupancy) is 0.0719.

For ACACGAAG, which binding signal (normalized occupancy) is on record?
Its binding signal (normalized occupancy) is 0.0713.

For CGGGCAGC, which binding signal (normalized occupancy) is on record?
Its binding signal (normalized occupancy) is 0.0655.

With CTAATTTC as the sequence, how does the binding signal (normalized occupancy) read?
Its binding signal (normalized occupancy) is 0.0739.

CTAAACGC was tested. Which binding signal (normalized occupancy) did it give?
The binding signal (normalized occupancy) was 0.0744.

ACCCTGTC was tested. Which binding signal (normalized occupancy) did it give?
The binding signal (normalized occupancy) was 0.075.

With CTACATTC as the sequence, how does the binding signal (normalized occupancy) read?
The binding signal (normalized occupancy) was 0.0756.

Which binding signal (normalized occupancy) does the source give for ACTGTTTA here?
The binding signal (normalized occupancy) was 0.0699.

For CTACTAGA, which binding signal (normalized occupancy) is on record?
The binding signal (normalized occupancy) was 0.0787.

How did the binding signal (normalized occupancy) turn out when ACCAGGCA was run?
Its binding signal (normalized occupancy) is 0.0736.

For TCATCCCA, which binding signal (normalized occupancy) is on record?
The binding signal (normalized occupancy) was 0.0787.

Which binding signal (normalized occupancy) does the source give for CAAAAGTC here?
Its binding signal (normalized occupancy) is 0.0669.

ATCGCAGG was tested. Which binding signal (normalized occupancy) did it give?
Its binding signal (normalized occupancy) is 0.0683.

Which binding signal (normalized occupancy) does the source give for CCATGAAG here?
Its binding signal (normalized occupancy) is 0.0784.

How did the binding signal (normalized occupancy) turn out when CGACCTCG was run?
The binding signal (normalized occupancy) was 0.0723.

CTGAGCTC was tested. Which binding signal (normalized occupancy) did it give?
Its binding signal (normalized occupancy) is 0.0672.

ACGTCTAA was tested. Which binding signal (normalized occupancy) did it give?
Its binding signal (normalized occupancy) is 0.0724.

Which binding signal (normalized occupancy) does the source give for GAATTCTA here?
The binding signal (normalized occupancy) was 0.0768.

GTGATGGA was tested. Which binding signal (normalized occupancy) did it give?
Its binding signal (normalized occupancy) is 0.08.

How did the binding signal (normalized occupancy) turn out when AACTACAC was run?
The binding signal (normalized occupancy) was 0.0819.

GCACCAAC was tested. Which binding signal (normalized occupancy) did it give?
Its binding signal (normalized occupancy) is 0.0757.

CACCTGGG was tested. Which binding signal (normalized occupancy) did it give?
The binding signal (normalized occupancy) was 0.0841.

How did the binding signal (normalized occupancy) turn out when CGTTTAGA was run?
The binding signal (normalized occupancy) was 0.0747.

With CCTCTACA as the sequence, how does the binding signal (normalized occupancy) read?
Its binding signal (normalized occupancy) is 0.0806.

Which binding signal (normalized occupancy) does the source give for AATGAGCC here?
The binding signal (normalized occupancy) was 0.0755.

For ACTATACT, which binding signal (normalized occupancy) is on record?
Its binding signal (normalized occupancy) is 0.0795.

For CACGAGTA, which binding signal (normalized occupancy) is on record?
The binding signal (normalized occupancy) was 0.103.

How did the binding signal (normalized occupancy) turn out when ATGCAAAC was run?
The binding signal (normalized occupancy) was 0.0833.

For AAGATTCC, which binding signal (normalized occupancy) is on record?
The binding signal (normalized occupancy) was 0.0846.

How did the binding signal (normalized occupancy) turn out when ACAACAGA was run?
The binding signal (normalized occupancy) was 0.0735.

With CCAAGACG as the sequence, how does the binding signal (normalized occupancy) read?
The binding signal (normalized occupancy) was 0.0722.

For ATAGTACC, which binding signal (normalized occupancy) is on record?
The binding signal (normalized occupancy) was 0.0781.

Which binding signal (normalized occupancy) does the source give for GCCTTACA here?
Its binding signal (normalized occupancy) is 0.0739.

With AAGCGATC as the sequence, how does the binding signal (normalized occupancy) read?
Its binding signal (normalized occupancy) is 0.0682.

For ATCAAAAT, which binding signal (normalized occupancy) is on record?
Its binding signal (normalized occupancy) is 0.0754.

With CCCCTTGA as the sequence, how does the binding signal (normalized occupancy) read?
The binding signal (normalized occupancy) was 0.0791.

CGAGTACG was tested. Which binding signal (normalized occupancy) did it give?
Its binding signal (normalized occupancy) is 0.0713.

Which binding signal (normalized occupancy) does the source give for CTACGTTA here?
Its binding signal (normalized occupancy) is 0.0743.

For ATTCCCCG, which binding signal (normalized occupancy) is on record?
Its binding signal (normalized occupancy) is 0.0752.

ATCTGACA was tested. Which binding signal (normalized occupancy) did it give?
Its binding signal (normalized occupancy) is 0.0776.

With TCGCCTAA as the sequence, how does the binding signal (normalized occupancy) read?
The binding signal (normalized occupancy) was 0.0717.

Which binding signal (normalized occupancy) does the source give for AGTTCCTA here?
The binding signal (normalized occupancy) was 0.0689.

How did the binding signal (normalized occupancy) turn out when GGAGTAAC was run?
The binding signal (normalized occupancy) was 0.0708.

For CGGAGCAA, which binding signal (normalized occupancy) is on record?
The binding signal (normalized occupancy) was 0.068.

How did the binding signal (normalized occupancy) turn out when AAGACATA was run?
Its binding signal (normalized occupancy) is 0.0762.

With CCCGTCGG as the sequence, how does the binding signal (normalized occupancy) read?
Its binding signal (normalized occupancy) is 0.0689.

GGCCCGAC was tested. Which binding signal (normalized occupancy) did it give?
Its binding signal (normalized occupancy) is 0.064.

With GACCGTAA as the sequence, how does the binding signal (normalized occupancy) read?
The binding signal (normalized occupancy) was 0.0697.

For CCATTGAA, which binding signal (normalized occupancy) is on record?
Its binding signal (normalized occupancy) is 0.0748.

For AAATACCT, which binding signal (normalized occupancy) is on record?
Its binding signal (normalized occupancy) is 0.0775.

For GAAAGCAC, which binding signal (normalized occupancy) is on record?
The binding signal (normalized occupancy) was 0.0797.

Which binding signal (normalized occupancy) does the source give for ACACGTAG here?
Its binding signal (normalized occupancy) is 0.0822.

ACATCTTG was tested. Which binding signal (normalized occupancy) did it give?
The binding signal (normalized occupancy) was 0.0773.

With ACTGCTGG as the sequence, how does the binding signal (normalized occupancy) read?
Its binding signal (normalized occupancy) is 0.0688.

How did the binding signal (normalized occupancy) turn out when TGCCCAAA was run?
The binding signal (normalized occupancy) was 0.0731.

Which binding signal (normalized occupancy) does the source give for GGTGGACA here?
The binding signal (normalized occupancy) was 0.0773.

With GCTTACCC as the sequence, how does the binding signal (normalized occupancy) read?
Its binding signal (normalized occupancy) is 0.0711.

How did the binding signal (normalized occupancy) turn out when CACCTAGG was run?
Its binding signal (normalized occupancy) is 0.0742.

For GCGTACAC, which binding signal (normalized occupancy) is on record?
Its binding signal (normalized occupancy) is 0.0822.

For ATAGTCAT, which binding signal (normalized occupancy) is on record?
Its binding signal (normalized occupancy) is 0.0846.

With GGCTCCCA as the sequence, how does the binding signal (normalized occupancy) read?
Its binding signal (normalized occupancy) is 0.0719.

For AGTCCTTA, which binding signal (normalized occupancy) is on record?
Its binding signal (normalized occupancy) is 0.0728.

With CGAACATA as the sequence, how does the binding signal (normalized occupancy) read?
Its binding signal (normalized occupancy) is 0.0805.

GGTAAGAA was tested. Which binding signal (normalized occupancy) did it give?
The binding signal (normalized occupancy) was 0.0778.

Which binding signal (normalized occupancy) does the source give for ATGCTTCA here?
Its binding signal (normalized occupancy) is 0.0847.

For ACTCATAC, which binding signal (normalized occupancy) is on record?
Its binding signal (normalized occupancy) is 0.074.

With AGAAAAGG as the sequence, how does the binding signal (normalized occupancy) read?
Its binding signal (normalized occupancy) is 0.0723.

Which binding signal (normalized occupancy) does the source give for GCTGAAGC here?
Its binding signal (normalized occupancy) is 0.0688.

For AACGGAAG, which binding signal (normalized occupancy) is on record?
Its binding signal (normalized occupancy) is 0.0666.

Which binding signal (normalized occupancy) does the source give for AAGGGGCT here?
The binding signal (normalized occupancy) was 0.0751.

For CGACCCAC, which binding signal (normalized occupancy) is on record?
The binding signal (normalized occupancy) was 0.0808.

Which binding signal (normalized occupancy) does the source give for CGATACCC here?
Its binding signal (normalized occupancy) is 0.0786.

With ACTTGCGC as the sequence, how does the binding signal (normalized occupancy) read?
The binding signal (normalized occupancy) was 0.071.

For ACGCGCTA, which binding signal (normalized occupancy) is on record?
Its binding signal (normalized occupancy) is 0.0816.

With AGGAGTTC as the sequence, how does the binding signal (normalized occupancy) read?
Its binding signal (normalized occupancy) is 0.0754.

For GCAAGGGC, which binding signal (normalized occupancy) is on record?
The binding signal (normalized occupancy) was 0.0695.

How did the binding signal (normalized occupancy) turn out when ATGAAATA was run?
Its binding signal (normalized occupancy) is 0.0816.

Which binding signal (normalized occupancy) does the source give for GTCCTCTA here?
The binding signal (normalized occupancy) was 0.0658.

ATGATGTA was tested. Which binding signal (normalized occupancy) did it give?
Its binding signal (normalized occupancy) is 0.0862.

CTACGGCC was tested. Which binding signal (normalized occupancy) did it give?
The binding signal (normalized occupancy) was 0.0847.

How did the binding signal (normalized occupancy) turn out when ACTGATTA was run?
Its binding signal (normalized occupancy) is 0.0778.

ACAAACTC was tested. Which binding signal (normalized occupancy) did it give?
Its binding signal (normalized occupancy) is 0.0717.

With CCCAAACC as the sequence, how does the binding signal (normalized occupancy) read?
Its binding signal (normalized occupancy) is 0.0685.

With AGGAGCCT as the sequence, how does the binding signal (normalized occupancy) read?
Its binding signal (normalized occupancy) is 0.0674.

For GGGTGTAA, which binding signal (normalized occupancy) is on record?
The binding signal (normalized occupancy) was 0.0766.

Which binding signal (normalized occupancy) does the source give for GTTAAATA here?
The binding signal (normalized occupancy) was 0.0807.

With TCTGGGCA as the sequence, how does the binding signal (normalized occupancy) read?
Its binding signal (normalized occupancy) is 0.0693.

Which binding signal (normalized occupancy) does the source give for GAGCGACC here?
Its binding signal (normalized occupancy) is 0.0707.

For AGGCTGCG, which binding signal (normalized occupancy) is on record?
The binding signal (normalized occupancy) was 0.0631.

GAAATACA was tested. Which binding signal (normalized occupancy) did it give?
The binding signal (normalized occupancy) was 0.0759.

For GGATATTA, which binding signal (normalized occupancy) is on record?
Its binding signal (normalized occupancy) is 0.0779.
